Measurements published in PubChem BioAssay AID894 (National Center for Advancing Translational Sciences (NCATS), 2007).
Among all 150,000 compounds or so, about 6,500 (4.3%) were called active. Inconclusive means that the source gave no clear call. Such entries were picked first, then a sample of the others. The call rests on the fitted dose curve; in most records, active means well fitted inhibition curve with a large enough effect (not every such curve was filed as active); inconclusive means small, poorly fitted or top-dose-only effect, or another doubt; inactive means no such curve, though single readings can be large or run the other way. Potencies of inconclusive entries are left out as doubtful fits.
On the % scale 0 is the no-effect control and ±100 the full control effect; potency means the concentration at half of the fitted maximal effect; tags describe the fitted curve by direction and shape.

What follows are compounds tested against 15-hydroxyprostaglandin dehydrogenase [NAD(+)] (Homo sapiens) (UniProt P15428) (assay: qHTS Assay for Inhibitors of HPGD (15-Hydroxyprostaglandin Dehydrogenase)). Details: purified HPGD, NADH fluorescence kinetic, PGE2 substrate; activity change, negative = inhibition: stronger effect = lower value.
Chain of UniProt P15428 (P15428 whole entry, looked up): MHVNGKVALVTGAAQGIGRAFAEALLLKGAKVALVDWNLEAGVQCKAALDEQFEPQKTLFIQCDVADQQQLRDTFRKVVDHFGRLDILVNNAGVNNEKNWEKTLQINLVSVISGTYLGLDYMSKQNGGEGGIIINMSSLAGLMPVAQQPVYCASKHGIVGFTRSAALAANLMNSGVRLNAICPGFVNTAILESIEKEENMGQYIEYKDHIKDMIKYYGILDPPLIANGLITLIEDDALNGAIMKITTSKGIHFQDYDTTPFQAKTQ
Procedure, shortened: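 20 nM HPGD preincubated 15 min at room temperature with compound in 50 mM Tris-HCl pH 8, 0.01% Tween 20. Started with 1 mM NAD+ and 30 uM prostaglandin E2; NADH fluorescence (360/450 nm) read 5 times over 30-s intervals, last minus first.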
In the case of `COc1ccc(-c2cc3nc(C4CCN(C(=O)OC(C)(C)C)CC4)c(C(=O)O)cn3n2)cc1`, the Potency is reported as inconclusive [inhibitor, partial curve]. In the case of `COc1ccc(-c2nc(CC(=O)O)cs2)cc1OC`, the Potency is reported as inconclusive [inhibitor, partial curve]. With `CCC1=C2CC[C@H]3C(=O)N(c4ccccc4)C(=O)[C@H]3[C@H]2[C@@]2(Cc3ccccc3)C(=NCc3ccccc3)OC(=O)N2C1=O` the activity change, negative = inhibition was inactive: -4.24%. With `COc1ccc(CCN(C(=O)C(F)(F)F)C(C(=O)NC2CCCCC2)c2ccc(C)s2)cc1OC` (stereo not drawn) the activity change, negative = inhibition was inactive: -4.01%. In the case of `O=C(Nc1ccc(S(=O)(=O)N2CCCc3ccccc32)cc1)C1CCCO1` (stereo not drawn), the activity change, negative = inhibition is reported as inactive: -19.7%. `COc1cc2c(cc1OC)Cc1cc(OC)c(OC)cc1Cc1cc(OC)c(OC)cc1C2` was tested, and the activity change, negative = inhibition was inactive: -1.43%. `COc1ccc(-c2cc(C(F)(F)F)nc(-n3cncn3)n2)cc1` was tested, and the Potency was inconclusive [inhibitor, partial curve]. With `COC(=O)c1cc2occc2n1Cc1nc(-c2cccc(Cl)c2)oc1C` the activity change, negative = inhibition was inactive: -8.92%. For `O=C(O)CCCNS(=O)(=O)c1ccc(NCc2ccccc2)c(C(=O)O)c1`, the Potency was inconclusive [inhibitor, partial curve]. For `COc1cc(NC(=O)CSc2nc3c(C)ccc(C)c3cc2C)c(C(=O)O)cc1OC`, the activity change, negative = inhibition was inactive: 1.93%. For `Cc1cnc(N)c2c(=O)oc3ccccc3c12`, the Potency was inconclusive [inhibitor, partial curve]. With `Cc1ccccc1Cc1c(C)nc2c(C(=O)NCc3ccco3)cnn2c1C` the Potency was inconclusive [inhibitor, partial curve]. In the case of `COc1ccc(-n2ncc3c(NCc4ccco4)ncnc32)cc1`, the Potency is reported as inconclusive [inhibitor, partial curve]. With `COC(=O)c1ccccc1NC(=O)CSc1nc2ccccc2c(=O)[nH]1` the Potency was inconclusive [inhibitor, partial curve]. `COc1cc(Nc2ccccc2Cl)c([N+](=O)[O-])nc1[N+](=O)[O-]` was tested, and the Potency was active: 25.1 µM. With `O=C(NCCO)c1ccc2c(c1)S(=O)(=O)c1ccccc1C2=O` the Potency was inconclusive [inhibitor, single point]. For `COc1ccccc1/C=C1/C(=O)N(c2cc(C)cc(C)c2)C(c2cccc([N+](=O)[O-])c2)S1(=O)=O` (stereo not drawn), the Potency was inconclusive [inhibitor, partial curve]. With `O=C(CCSc1ccc(Cl)cc1)c1cccs1` the Potency was active: 20 µM. For `COC(=O)N1CCC[C@@]2(CCN(C(=O)Nc3ccccc3)C2)C1`, the activity change, negative = inhibition was inactive: -10.6%. For `COCCNC(=O)c1cc2c(-c3ccccc3F)nn(C)c2s1`, the Potency was inconclusive [inhibitor, partial curve]. With `CCOC(=O)CCC(=O)NCc1ccc2c(c1)cc(C)n2C` the Potency was inconclusive [inhibitor, partial curve]. In the case of `COc1ccc(C(C)=O)cc1CSc1nc2ccccc2o1`, the Potency is reported as inconclusive [inhibitor, partial curve]. `Cc1ccc(-c2cc(-c3n[nH]c(=S)o3)c3ccccc3n2)cc1` was tested, and the Potency was inconclusive [inhibitor, partial curve]. For `COc1cccc(-c2ccc3ncnc(NCc4cccs4)c3c2)c1`, the Potency was inconclusive [inhibitor, single point]. For `COc1ccc(C(=O)Oc2ccc(/C=N/O)cc2)cc1`, the activity change, negative = inhibition was inactive: -14.5%. With `O=C(O)Cc1ccc(C(=O)c2cccs2)s1` the Potency was active: 12.6 µM. For `Cc1c2cnccc2c(C)c2c1c1ccccc1n2CCOC(=O)c1ccccc1`, the Potency was inconclusive [inhibitor, partial curve]. With `Cn1cc(C2=C(c3cn(CCCSC(=N)N)c4ccccc34)C(=O)NC2=O)c2ccccc21` the activity change, negative = inhibition was inactive: -7.65%. For `CCC(C)n1c(NC(=O)c2ccccc2)c(C#N)c2nc3ccccc3nc21` (stereo not drawn), the Potency was inconclusive [inhibitor, partial curve]. For `O=C(C1CC(c2cccc(Br)c2)=NO1)N1CCc2ccccc2C1` (stereo not drawn), the Potency was inconclusive [inhibitor, full curve, poor fit]. For `COC(=O)c1cn(NC(=O)Cc2ccc(Cl)c(Cl)c2)c(=O)c2ccccc12`, the Potency was inconclusive [inhibitor, partial curve]. For `O=C(NCc1cccnc1)c1ccccc1Br`, the Potency was inconclusive [inhibitor, partial curve]. `CSCc1cc(N2CCOCC2)nc(SCc2ccc(Cl)c(Cl)c2)n1` was tested, and the activity change, negative = inhibition was inactive: -26.5%. In the case of `COc1ccc(OC)c(-n2c(-c3ccccc3)n[nH]c2=S)c1`, the Potency is reported as inconclusive [inhibitor, single point]. With `COC(=O)c1cc(OC)c(OC)cc1NC(=O)CSc1ccc(C)cc1` the Potency was inconclusive [inhibitor, single point]. `Cc1ccc(NP(=O)(c2ccc(N(C)C)cc2NC(=O)c2cccs2)N2CCOCC2)cc1Cl` (stereo not drawn) was tested, and the Potency was inconclusive [inhibitor, partial curve]. For `O=C(Cn1nnc(-c2ccccc2-n2cnnn2)n1)N1CCCCC1`, the activity change, negative = inhibition was inactive: -8.98%. `CCOC(=O)c1c(NC(=O)Cn2nc(C(F)(F)F)cc2C)sc(C)c1C` was tested, and the Potency was inconclusive [inhibitor, partial curve]. In the case of `Cc1cc(C)c(C)c(S(=O)(=O)Nc2ccccc2C(=O)O)c1C`, the Potency is reported as inconclusive [inhibitor, partial curve]. With `CN1CCN(C(=S)NC(=O)/C=C/c2cccc3ccccc23)CC1` the activity change, negative = inhibition was inactive: -7.53%. With `CC1CCCC(NC(=O)Cn2cc3c(n2)CCCCC3)C1C` (stereo not drawn) the Potency was inconclusive [inhibitor, partial curve]. With `Cc1c(C(=O)N(C)C)sc2nc(-c3ccccn3)[nH]c(=O)c12` the Potency was inconclusive [inhibitor, partial curve]. For `O=C(O)c1ccc2c(c1)C(=O)N(c1cc(C(=O)O)ccc1Br)C2=O`, the Potency was inconclusive [inhibitor, partial curve].
